Measurements: PubChem BioAssay (NCATS)
The inconclusive results got no clear call from the source; some entries with a clear call stand among them for comparison. Potencies of inconclusive entries are left out as doubtful fits. Activity calls are given as the source filed them. Calls follow the shape of the dose curve; as a rule, active = well fitted inhibition curve with a large enough effect; inconclusive = small, poorly fitted or top-dose-only effect; inactive = no such curve, though single readings can be large or run the other way.

Experiment: BET inhibitor-based combinations targeting novel dependencies in MECOM-rearranged (r) AML: OCI-AML3 cell line (AID 2202232); also: nearly all actives have a fitted effect of over 35% in size;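 as to viability (% of control): plate controls were DMSO vehicle wells for no effect and wells without cells for full effect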
Conditions: CellTiter-Glo luminescence, 48 h; Potency: OCI-AML3 viability; viability (% of control): at 46 µM (top of the series)
In short: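 Viability of cells (500 per well) is scored by luminescent CellTiter-Glo at 48 hr post-dosing. Eleven-point titrations are normalized to DMSO and empty controls and reduced to AUC values.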
Potency is read from the fitted curve at half-maximal effect; tags tell the direction and shape of the fitted curve.

| SMILES | Potency | viability (% of control) |
| --- | --- | --- |
| COC(=O)N(CC(=O)O)Cc1cccc(OCc2nc(-c3ccc(Cl)cc3)oc2C)c1 | inconclusive [inhibitor, partial curve, poor fit] | – |
| CN1CCN(c2ccc(-c3cccc(CN4CCOCC4)c3)cc2NC(=O)c2c[nH]c(=O)cc2C(F)(F)F)CC1 | inconclusive [inhibitor, partial curve, poor fit] | – |
| Cn1c(=O)c(Oc2ccc(F)cc2F)cc2cnc(NC3CCOCC3)nc21 | inactive | – |
| CC[C@@H](Oc1cccc(CN(CCCOc2ccc(OC)cc2)c2nc3ccccc3o2)c1)C(=O)O | inactive | – |
| CN(C)CC(C)(C)CNc1nn2c(-c3ccccc3)nnc2cc1C1CCC1 | inconclusive [inhibitor, full curve, poor fit] | – |
| O=c1cc(N2CCOCC2)oc2c(-c3ccc4c(c3)OCCO4)csc12 | inconclusive [inhibitor, partial curve, poor fit] | – |
| COc1cc(OC)c(NC(=O)Nc2cc(C)on2)cc1Cl | inconclusive [inhibitor, full curve, poor fit] | – |
| O=C1OC2(CCC(C(=O)Nc3ccn(-c4ccccc4F)n3)CC2)c2cnccc21 (stereo not given) | inconclusive [inhibitor, partial curve] | – |
| O=C(O)[C@H](CC(=O)N1C[C@H]2CCCC[C@H]2C1)Cc1ccccc1 | inactive | – |
| COc1ccc(-c2cc(=O)c3c(O)cc(O[C@@H]4O[C@H](CO[C@@H]5O[C@@H](C)[C@H](O)[C@@H](O)[C@H]5O)[C@@H](O)[C@H](O)[C@H]4O)cc3o2)cc1O | inactive | – |
| CC(=O)NCC(=O)N1[C@@H]2CC[C@H]1c1ccc(Nc3ncc(C(F)(F)F)c(NC4CCC4)n3)cc12 | active: 14.8 µM | – |
| NC[C@H]1O[C@H](O[C@H]2[C@H](O)[C@@H](O[C@H]3O[C@H](CO)[C@@H](O)[C@H](N)[C@H]3O)[C@H](N)C[C@@H]2N)[C@H](N)C[C@@H]1O | inactive | – |
| CSC[C@H]1CN(Cc2c[nH]c3c(N)ncnc23)C[C@@H]1O | inconclusive [inhibitor, partial curve, poor fit] | – |
| O=C(c1ccc(F)cc1)N1CCC[C@H](c2nc(-c3ccc(F)cc3)no2)C1 | inconclusive [inhibitor, partial curve] | – |
| CC1(C)CC[C@]2(C(=O)O)CC[C@]3(C)C(=CC[C@@H]4[C@@]5(C)C[C@@H](O)[C@H](O)C(C)(C)[C@@H]5CC[C@]43C)[C@@H]2C1 | inactive | – |
| C[C@H]1CNCCCN1S(=O)(=O)c1cccc2cncc(F)c12 | inactive | – |
| O=C1[C@H](Cc2ccc(O)cc2)N2C(=O)CCN(C(=O)NCc3ccccc3)[C@H]2CN1Cc1cccc2ccccc12 | active: 9.34 µM | – |
| COCCn1c2c([n+](Cc3cnccn3)c1C)C(=O)c1ccccc1C2=O | active: 0.0525 µM | – |
| C=C1[C@H](CO)[C@@H](O)C[C@@H]1n1cnc2c(=O)[nH]c(N)nc21 | inconclusive [inhibitor, partial curve, poor fit] | – |
| C=C1/C(=C/C=C2\CCCC3(C)[C@@H]([C@H](C)/C=C/C=C/C(O)(CC)CC)CC[C@@H]23)C[C@@H](O)C[C@@H]1O (stereo not given in full) | active: 16.6 µM | – |

| SMILES | Potency | viability (% of control) |
| --- | --- | --- |
| CCc1cc(C(N)=O)ccc1-n1nc(C(C)C)c2c(-n3cnc(-c4cnn(C)c4)c3)ccnc21 | active: 1.86 µM | – |
| Clc1cccc(-c2ccc(-c3nnc(CCCc4ccc5cccnc5n4)o3)cc2)c1 | inactive | – |
| O=C1CCCC(=O)C1C(=O)c1ccc(C(F)(F)F)cc1[N+](=O)[O-] | inactive | – |
| C=C1[C@H](OC(=O)/C=C(\C)CC)C[C@@H](C(C)C)[C@@H]2[C@H]([C@@H](C)OC(C)=O)C(=O)C[C@@H]12 | inconclusive [inhibitor, partial curve] | – |
| COc1cc(Nc2nc3ccccc3nc2NS(=O)(=O)c2ccc(NC(=O)c3ccc(C)c(OC)c3)cc2)cc(OC)c1 | inconclusive [inhibitor, partial curve, poor fit] | – |
| COc1c(N2CCNC(C)C2)c(F)cc2c(=O)c(C(=O)O)cn(C3CC3)c12 (stereo not given) | inactive | – |
| Nc1nc2cc(-c3ccc4ncc(C(=O)N5CCOCC5)n4c3)ccc2o1 | inconclusive [inhibitor, partial curve, poor fit] | – |
| Clc1ccc(Cn2c(CN3CCCC3)nc3ccccc32)cc1 | inconclusive [inhibitor, partial curve, poor fit] | – |
| C[C@@H](OC[C@@]1(c2ccccc2)CC[C@]2(CCC(=O)N2)CN1)c1cc(C(F)(F)F)cc(C(F)(F)F)c1 | active: 18.6 µM | – |
| CCC1CCCCN1C(=O)n1ncc(C(O)(c2ccccc2)c2ccccc2)n1 (stereo not given) | – | inconclusive: 82.4% [inhibitor] |
| COc1cc2nccc(Oc3ccc(NC(=O)c4cn(C(C)C)c(=O)n(-c5ccc(F)cc5)c4=O)cc3F)c2cc1OC | inactive | – |
| CCOc1ccccc1N=Nc1c(C)[nH]n(-c2nc(-c3ccccc3)cs2)c1=O | inconclusive [inhibitor, full curve, poor fit] | – |
| CC(=O)OCC(CCn1cnc2cnc(N)nc21)COC(C)=O | inactive | – |
| OCCCNc1cc(-c2ccnc(Nc3cccc(Cl)c3)n2)ccn1 | active: 0.118 µM | – |
| CN(C)CCN1C(=O)c2cccc3cc(N)cc(c23)C1=O | inconclusive [inhibitor, partial curve, poor fit] | – |
| COc1ccc(CCC(=O)Nc2nc3ccc(Cl)cc3s2)cc1OC | inactive | – |
| Cc1ccc(NC(=O)NCc2ccc3c(c2)CN(C2CCC(=O)NC2=O)C3=O)cc1Cl (stereo not given) | active: 0.003 µM | – |
| C[C@]12CC[C@@H]3c4ccc(O)cc4C[C@@H](CCCCCCCCCS(=O)CCCC(F)(F)C(F)(F)F)[C@H]3[C@H]1CC[C@H]2O (stereo not given in full) | inconclusive [inhibitor, partial curve, poor fit] | – |
| CCCC1OC2C[C@@H]3[C@H]4CCC5=CC(=O)C=C[C@]5(C)[C@H]4C(O)C[C@]3(C)[C@]2(C(=O)CO)O1 (stereo not given in full) | inconclusive [inhibitor, partial curve, poor fit] | – |
| COc1ccc(/C=C\c2cc(OC)c(OC)c(OC)c2)cc1O | inconclusive [inhibitor, full curve, poor fit] | – |
